Experimental findings from PMC4336329 (PLoS ONE, 2015) are described below.

Hit rate of the full screen: of about 310,000 compounds, about 2,200 (0.71%) showed an effect of 50% or more. Effects have a minus sign here. The list shows a part of the results.

The assay deals with human ether-à-go-go-related gene (hERG) potassium channel (human, UniProt Q12809). Kind of assay: primary screen, population patch clamp on CHO cells stably expressing hERG.
human ether-à-go-go-related gene (hERG) potassium channel, sequence (Q12809 whole entry, looked up): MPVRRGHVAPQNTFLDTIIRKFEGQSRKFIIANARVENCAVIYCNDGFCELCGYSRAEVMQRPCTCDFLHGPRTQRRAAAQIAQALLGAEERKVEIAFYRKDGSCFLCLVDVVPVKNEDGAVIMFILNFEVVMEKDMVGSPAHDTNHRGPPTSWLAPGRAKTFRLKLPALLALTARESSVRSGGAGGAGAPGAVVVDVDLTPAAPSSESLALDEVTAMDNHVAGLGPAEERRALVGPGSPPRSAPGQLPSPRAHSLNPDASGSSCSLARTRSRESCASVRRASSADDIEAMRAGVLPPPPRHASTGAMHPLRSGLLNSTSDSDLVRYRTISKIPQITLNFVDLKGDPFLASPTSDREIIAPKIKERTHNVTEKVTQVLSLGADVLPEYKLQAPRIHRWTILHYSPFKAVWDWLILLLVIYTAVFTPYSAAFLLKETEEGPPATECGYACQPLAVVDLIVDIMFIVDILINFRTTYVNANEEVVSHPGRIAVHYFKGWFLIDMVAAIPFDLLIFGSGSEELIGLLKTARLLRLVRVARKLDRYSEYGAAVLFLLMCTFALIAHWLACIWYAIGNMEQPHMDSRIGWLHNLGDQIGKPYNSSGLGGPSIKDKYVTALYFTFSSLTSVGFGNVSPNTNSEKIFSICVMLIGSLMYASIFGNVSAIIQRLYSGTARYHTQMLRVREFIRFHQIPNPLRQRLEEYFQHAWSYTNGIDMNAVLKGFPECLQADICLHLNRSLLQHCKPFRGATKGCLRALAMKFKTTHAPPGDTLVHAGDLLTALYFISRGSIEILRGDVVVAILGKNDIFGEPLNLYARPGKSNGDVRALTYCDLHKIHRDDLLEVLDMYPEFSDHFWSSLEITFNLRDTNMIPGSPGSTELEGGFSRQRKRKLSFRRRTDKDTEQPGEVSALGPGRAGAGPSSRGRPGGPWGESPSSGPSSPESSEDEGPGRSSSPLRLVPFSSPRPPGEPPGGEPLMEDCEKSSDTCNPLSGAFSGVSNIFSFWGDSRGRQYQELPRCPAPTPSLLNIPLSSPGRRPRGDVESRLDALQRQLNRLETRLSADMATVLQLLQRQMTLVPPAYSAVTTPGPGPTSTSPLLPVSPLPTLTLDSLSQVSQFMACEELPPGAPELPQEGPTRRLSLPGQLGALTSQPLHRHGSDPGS
Consider `Cn1c(=O)c2c(ncn2CCCc2ccccc2)n(C)c1=O`, for which the “hERG current change (%, negative = inhibition) at 1uM” value is reported as 4.04%.
In the case of `C[C@@H]1CCC[C@H](C)N1Cc1nc(Cc2ccccc2Cl)no1`, the “hERG current change (%, negative = inhibition) at 1uM” value turned out to be 14.1%.
With `COc1ccc(NC(=O)CSc2nnc(CNc3ccc(F)cc3)o2)c(OC)c1`, the “hERG current change (%, negative = inhibition) at 1uM” value is on record as 12.9%.
Take `Cc1ccccc1N=C(NO)c1nonc1N`: the “hERG current change (%, negative = inhibition) at 1uM” value is reported as 11%.
To `COc1ccc(CCN2CC(C(=O)NC3CCOCC3)CCC2=O)cc1` (stereo not drawn) belongs 4.8%; to `CCc1cccc(CC)c1NC(=O)CN(CC(=O)O)CC(=O)O`, 12.1%.
`O=C(/C=N/O)NCCCN1CCCCCC1`: the “hERG current change (%, negative = inhibition) at 1uM” value is 7.96%.
To `Cc1ccc2c(c1)nnn2C1CCN(S(=O)(=O)c2ccc(C(=O)N3C(C)CCCC3C)cc2)CC1` (stereo not drawn) belongs 7.12%; to `COc1ccc(C(c2nnnn2C2CCCCC2)N2CCN(c3ccccc3F)CC2)cc1` (stereo not drawn), 7.35%.
As to `CCOC(=O)N1CCC(NC(=O)c2ccc3snnc3c2)CC1`, the “hERG current change (%, negative = inhibition) at 1uM” value is on record as -10.2%.
To `CCc1c(C)[nH]n(-c2nc(-c3ccccc3)cs2)c1=O` belongs 19.8%.
For `COc1ccc(CNc2cccc(F)c2)cc1Br` the value was 2.58%; for `COC/C=C/C1=CC2=CC(=O)C(C)(OC(=O)c3cnc4ccccc4n3)C(=O)C2=CN1C1CCCCC1` (stereo not drawn), 9.88%.
For `O=C1Nc2ccccc2S/C1=C\C(=O)N1CCCC1`, the “hERG current change (%, negative = inhibition) at 1uM” value stood at 11%.
To `O=C(NC1CCCCC1)N1CCC(n2cnc3ccccc32)CC1` belongs 11.3%; to `C[C@@H]1CN(C2CCN(Cc3nc(C(c4ccccc4)c4ccccc4)no3)CC2)C[C@H](C)O1`, -2.33%; to `O=C(/C=C/c1ccc(OCc2c(F)cccc2Cl)cc1)N1CCOCC1`, -3.56%.
To `CCOCCCNCc1cn(-c2ccc(F)cc2F)nc1-c1ccccc1C` belongs -5.46%; to `C[C@@H](NC(=O)c1nc[nH]c1C(=O)N1CCN(C(=O)OC(C)(C)C)CC1)c1ccccc1`, 14.4%; to `O=C1C=C(c2ccc3ncccc3c2)C[C@@H](c2ccc(Cl)cc2)C1`, 10.4%.
Consider `COc1cc(/C=N/NC(=O)c2nnn(-c3nonc3N)c2C(C)C)ccc1OCc1ccc(F)cc1`, for which the “hERG current change (%, negative = inhibition) at 1uM” value came to 27.3%.
To `Cc1cc(Cl)ccc1OC(C)C(=O)Nc1ccc(S(=O)(=O)N2CCOCC2)cc1` (stereo not drawn) belongs 14.2%; to `O=C(Nc1nnc(Cc2ccc([N+](=O)[O-])cc2)s1)Nc1ccccc1F`, 18.3%; to `Cc1nc(C(=O)NCC(=O)c2ccc(Cl)cc2)c(C(F)(F)F)o1`, 10.8%.
